Experimental data: article PMC4336329 (PLoS ONE, 2015)
The whole screen tested about 310,000 compounds, of which about 14,000 (4.5%) showed an effect of 50% or more. The effect is printed as a negative number. The list shows a part of the results.

Target: human ether-à-go-go-related gene (hERG) potassium channel (human, UniProt Q12809)
Assay: primary screen, population patch clamp on CHO cells stably expressing hERG
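Further: peak tail current of the secondary pulse compared with the same well before compound.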

human ether-à-go-go-related gene (hERG) potassium channel, sequence (Q12809 whole entry, looked up): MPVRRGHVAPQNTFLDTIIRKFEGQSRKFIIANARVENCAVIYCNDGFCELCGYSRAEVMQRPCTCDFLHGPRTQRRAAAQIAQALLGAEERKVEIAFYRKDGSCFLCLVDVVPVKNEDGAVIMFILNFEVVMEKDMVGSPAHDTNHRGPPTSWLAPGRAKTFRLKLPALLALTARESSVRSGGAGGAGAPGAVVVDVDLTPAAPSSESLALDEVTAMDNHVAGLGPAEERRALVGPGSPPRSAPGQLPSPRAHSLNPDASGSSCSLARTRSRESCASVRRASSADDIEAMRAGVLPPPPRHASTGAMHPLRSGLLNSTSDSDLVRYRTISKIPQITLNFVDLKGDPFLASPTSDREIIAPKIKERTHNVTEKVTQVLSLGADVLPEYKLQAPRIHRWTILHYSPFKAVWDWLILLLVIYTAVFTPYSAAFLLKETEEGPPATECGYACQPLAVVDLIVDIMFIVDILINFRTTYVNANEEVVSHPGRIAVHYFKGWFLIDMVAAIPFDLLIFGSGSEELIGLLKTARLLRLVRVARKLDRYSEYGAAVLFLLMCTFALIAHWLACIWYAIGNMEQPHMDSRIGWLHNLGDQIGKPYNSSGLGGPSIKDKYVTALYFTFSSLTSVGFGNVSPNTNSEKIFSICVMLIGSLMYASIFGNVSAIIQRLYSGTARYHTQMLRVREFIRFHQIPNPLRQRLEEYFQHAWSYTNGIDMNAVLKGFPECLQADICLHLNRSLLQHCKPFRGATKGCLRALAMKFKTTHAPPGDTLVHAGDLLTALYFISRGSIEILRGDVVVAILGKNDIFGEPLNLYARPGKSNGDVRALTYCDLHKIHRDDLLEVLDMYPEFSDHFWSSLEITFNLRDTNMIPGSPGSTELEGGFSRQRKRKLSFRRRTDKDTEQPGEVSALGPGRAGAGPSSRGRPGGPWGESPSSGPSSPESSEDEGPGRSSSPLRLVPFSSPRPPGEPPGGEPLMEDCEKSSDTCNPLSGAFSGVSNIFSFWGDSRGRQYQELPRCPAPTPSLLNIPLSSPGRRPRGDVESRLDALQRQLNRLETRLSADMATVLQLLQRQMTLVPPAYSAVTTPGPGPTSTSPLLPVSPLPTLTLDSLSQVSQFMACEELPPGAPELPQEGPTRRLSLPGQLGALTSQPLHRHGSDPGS

SMILES | hERG current change (%, negative = inhibition) at 10uM
C#CCOCCOCCOCCNc1nc(N2CCOCC2)nc(N2CCN(C(=O)CCCCCCCCCCNC(=O)Cn3cc(CCCCCN)nn3)CC2)n1 | 8.83%
Cc1ccc(NS(=O)(=O)c2ccc(NS(=O)(=O)c3cccs3)cc2)cc1 | -4.38%
O=c1[nH]c(O)c(N=Nc2ccc(SC(F)F)cc2)c(=O)[nH]1 | -11.2%
Cc1cc(C)c2oc(C(=O)NCc3ccccc3)cc(=O)c2c1 | 18.3%
COCCCN1C(=O)C(=O)/C(=C(/O)c2ccc(OC(C)C)c(C)c2)C1c1ccncc1 (stereo not drawn) | 5.5%
COc1ccc(Cc2nc3ccc(C(=O)N(C)C(C)c4nccs4)cc3o2)cc1 (stereo not drawn) | -1.6%
CCOC(=O)N1CCN(C(=O)c2ccc3c(Cl)c4c(nc3c2)CCCC4)CC1 | -25.1%
O=C(N=Nc1c(O)[nH]c2ccc(Br)cc12)c1ccccc1-n1cccc1 | -13.7%
COc1ccc(NC(=O)N2CCN(c3nc4ccccc4n3C(C)C)CC2)cc1 | -12%
Cn1c(O)c(C=Nc2cccc(C(F)(F)F)c2)c(=O)n(C)c1=O | -4.28%
CCOc1ccc(C(=O)NC(C(=O)NCC(c2cccs2)N(C)C)C(C)C)cc1 (stereo not drawn) | -19.8%
CC(OC(=O)C1=Cc2ccccc2OC1)C(=O)NC(C)(C)C (stereo not drawn) | 32.4%
O=C(NCCCn1ccnc1)/C(=C/c1cccnc1)NC(=O)c1ccco1 | 4.25%
S=c1[nH]nc(-c2cc(-c3ccco3)[nH]n2)n1-c1ccccc1 | 12.3%
O=S(=O)(NCc1ccccn1)c1ccccn1 | 5.09%
C/C(=N\Nc1cccc([N+](=O)[O-])c1)c1ccccc1O | 12.6%
CCOc1ccccc1NC(=O)c1ccc(S(=O)(=O)N(C)c2ccccc2)cc1 | 0.368%
C=CCSc1nnc(C)n1-c1ccc(Cl)cc1 | 2.53%
O=C(CCS(=O)(=O)c1cccc2nonc12)NCCc1ccccc1 | -16.7%
Cc1c(C=Nc2ccc(S(=O)(=O)CCO)cc2)c(O)[nH]c(=O)c1C#N | 18.9%
Cc1ccc(-n2nc3c(=O)n(CCCC(=O)N4CCCCC4)nc(C)c3c2C)cc1 | -10.3%
Cc1ccc(NC(=S)Nc2ccc(S(=O)(=O)Nc3ncccn3)cc2)c(C)c1 | 4.23%

SMILES | hERG current change (%, negative = inhibition) at 10uM
CCCN1CCc2c(sc(NC(=O)Cc3ccc(F)cc3)c2C(N)=O)C1.Cl | -38.3%
COc1ccc([N+](=O)[O-])c(OC)c1C(=O)NC(=O)Nc1c(F)cc(F)cc1F | 10.1%
c1cncc(CNC2=NCCC2)c1 | 16.2%
NS(=O)(=O)c1ccc(CCNC(=O)COC(=O)C2CCCN2C(=O)c2cccs2)cc1 (stereo not drawn) | 6.4%
CC(=O)c1cccc(N=C2C(=O)Nc3ccccc32)c1 | -4.18%
COC(=O)Cn1c(=O)cnc2ccccc21 | -2.96%
C/C(CC(=O)Nc1ccc(Cl)c(C(F)(F)F)c1)=N\NC(=O)c1ccccc1O | -14.4%
Cc1ccc(NC(=O)CSc2nncn2N)cc1C | 10.6%
Cc1cc(C)n(S(=O)(=O)c2ccc3ccccc3c2)n1 | -10.3%
Cc1ccc(C(=O)Nc2cc(-c3ccn[nH]3)c(C)n(N)c2=O)cc1 | 8.42%
CC(=O)c1c(C)c2c(n1CCN(C)C)CCCC2.Cl | -4.72%
CC(Sc1nnc(-c2ccco2)n1C)C(=O)Nc1nccs1 (stereo not drawn) | -21.1%
COc1ccc(-c2nc(SCc3ccccc3)n(C(=O)c3ccco3)n2)cc1 | 26.6%
O=C1Nc2ccccc2C1(c1ccccc1)c1ccccc1 | -5.95%
O=c1ccc2ccc(O[C@@H]3O[C@H](CO)[C@@H](O)[C@H](O)[C@H]3O)c(O)c2o1 | 23.8%
CCOc1ccc(CNC(=O)CCCC(=O)n2ncc3cc(C)ccc32)cc1 | 8.34%
CC(=O)c1cc2c(cc1NC(=O)c1cnc(C)cn1)OCO2 | 4.22%
CCC(c1nnnn1C(C)(C)C)N1CCN(C(=O)c2ccco2)CC1 (stereo not drawn) | -9.54%
Cc1ccc(CCNC(=O)C23CN(Cc4ccccc4)CC2C(c2cccc([N+](=O)[O-])c2)=NO3)cc1 (stereo not drawn) | -14.8%
Cc1coc2c(C)c3oc(=O)c(CCC(=O)NCCCN4CCCC4=O)c(C)c3cc12 | -12.8%
C=CCCC(=O)N(C)CCO | 20.4%
CC(=O)N1c2ccc(Cl)cc2C2OCCC2C1c1ccco1 (stereo not drawn) | 9.11%

SMILES | hERG current change (%, negative = inhibition) at 10uM
O=C(Cc1ccc(Cl)cc1)Nc1ccccc1CO | -6.75%
Cc1cc(C(=O)Nc2nc(-c3ccccn3)cs2)ccc1[N+](=O)[O-] | -4.11%
OCC[C@H]1C[C@@H](O)[C@H](O)[C@@]2(Cc3ccccc3O2)O1 | 26.8%
N=C1C(c2nc3ccccc3s2)=C(O)CN1NC(=O)c1c[nH]c2ccccc12 | 16.8%
CCCN(CC(=O)Nc1cccc(Br)c1)CC(=O)Nc1ccc(F)c(F)c1F | -10.1%
CSCC[C@H](NC(=O)C1CCCC1)c1nc2ccccc2[nH]1 | 9.91%
COc1cccc(CNC(=O)C(=O)NCCC2CCCCN2S(=O)(=O)c2ccccc2)c1 (stereo not drawn) | -34.6%
COC(=O)c1cc2c(ccn2-c2ccc(F)cc2)n1Cc1ccc(OC)cc1 | -0.0838%
CC(O)(CS(=O)(=O)Cc1ccc(Cl)cc1)C(=O)Nc1cccc(C(F)(F)F)c1 (stereo not drawn) | -3.03%
COC(=O)C1(C)NC(c2ccccc2OC)C2C(=O)N(c3ccccc3)C(=O)C21 (stereo not drawn) | 3.97%
CN1C(=O)C2(c3ccccc31)c1c(oc3ccccc3c1=O)C(=O)N2CCCO (stereo not drawn) | 16.3%
CC1CCC2C(=O)N(c3ccc(NC4CCCCC4)c([N+](=O)[O-])c3)C(=O)C2C1 (stereo not drawn) | 1.71%
COC(=O)C1=C(N)OC(C)=C(C(C)=O)C12C(=O)N(C)c1ccccc12 (stereo not drawn) | -3.07%
COC(=O)c1nc(NC(C)=O)n[nH]1 | 14%
COc1ccc(CCNS(=O)(=O)c2ccc(F)cc2)cc1OC | -5.18%
COc1ccccc1NC(=O)COC(=O)[C@@H]1CCCN1C(=O)c1cccs1 | -40.6%
COc1ccc(N(C)C(=O)Nc2ccc3c(c2)nnn3C)cc1 | 4.71%
COc1cccc(/C=N/NC(=O)c2cc3c(OC)cccc3[nH]2)c1O | 28.3%
COc1ccc(S(=O)(=O)Cc2ccc(C(=O)NCc3ccccn3)o2)cc1 | -1.65%
Cc1cccc(CSc2ccc3nnc(-c4cccnc4)n3n2)c1 | -66.5%
Cc1nc(SCC(=O)N(C)C2CCCCC2)[nH]c(=O)c1Cc1ccccc1 | -38.3%
O=C1/C(=C/c2ccncc2)SC(=S)N1Nc1ccccc1 | 14.3%

SMILES | hERG current change (%, negative = inhibition) at 10uM
C=CCN1C(=O)/C(=C\c2ccc(Cl)cc2)N=C1SCC(=O)NC1CCCCC1 | 9.07%
CCN1CCN(C(=S)Nc2sc(C)c(-c3ccccc3)c2C(=O)OC)CC1 | 15.3%
CCn1c(CNC(=O)c2ccccc2)nnc1SCC(=O)N1CCN(c2ccccc2)CC1 | -11.6%
O=C(Nc1ccc(C(=O)N2CCOCC2)cc1)c1cccc([N+](=O)[O-])c1 | 18.2%
COc1ccccc1C(=O)Oc1ccc2c(c1)O/C(=C\c1ccncc1)C2=O | 16.4%
O=C(NC(=S)Nc1ccccc1N1CCCCC1)c1ccc(-c2cccc([N+](=O)[O-])c2)o1 | 4.88%
CN(C)CCCN(Cc1ccccc1)C(=S)Nc1ccc(F)c(Cl)c1 | -24.3%
CSc1nc(C)c(C(=O)C[n+]2ccccc2)cc1C#N.[Br-] | -22.6%
Cc1ccccc1Oc1ccc(-c2nc(N)nc(N)n2)cc1 | 3.44%
COc1ccc(CN2C(=S)NC(C)(C)CC2(C)O)cc1 (stereo not drawn) | 5.27%
O=C(CS(=O)(=O)c1cccc(C(F)(F)F)c1)Nc1ccccc1Cl | 8.59%
CCN1CCN(C(=O)/C=C/c2ccc(F)cc2)CC1 | -43.2%
O=C(COC(=O)c1ccc(Cl)cc1O)NCCN1C(=O)CSC1=O | -0.903%
O=C(CCCn1c(=O)[nH]c2cc(Cl)ccc2c1=O)NCCCN1CCCC1 | 14.6%
CN(CC(=O)Nc1ccc(Cl)c(C(F)(F)F)c1)C(=O)c1ccc2c(c1)OCCO2 | -8.55%
Cc1cc(=O)n2nc(N3CCCC(C(=O)NCCCN4CC(C)CC(C)C4)C3)sc2n1 (stereo not drawn) | 16.3%
COCCn1c(N2CCCC2)nc2c1c(=O)[nH]c(=O)n2C | 15.7%
Cc1ccc(N(CC2CO2)S(=O)(=O)c2ccc(C)cc2)cc1 (stereo not drawn) | -5.18%
Cc1cc([N+](=O)[O-])nn1CC(=O)Nc1nccs1 | -4.57%
CN(C)c1nc(-c2cn(CCC#N)c3ccccc23)cs1 | 25.6%
CCC(C)(C)c1nnc(NC(=O)c2ccc([N+](=O)[O-])cc2)s1 | 7.45%
